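Growth conditions: 96-well plates. Treatment: test compound, 48 hours, 5 concentrations. Analysis: linear interpolation between bracketing concentrations; unreached endpoints set to highest concentration. Here, GI50 denotes the concentration required for 50% inhibition of growth.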 Activity calls are given as the source filed them. Cut-off read from the data, not from the text of the source: active = GI50 up to about 1.1 µM and inactive = higher. A value given as a limit tells only on which side of the number the result lay.

Here are results for 84 compounds from ChEMBL document CHEMBL1201862, “PubChem BioAssay data set” (2004).

For the assay, the system named is NCI-H322M. The assay can be described thus: inhibition of tumour cell growth, NCI panel, 48 h.
Regarding `CN(O)C(=O)c1ccccc1`, the GI50 was inactive: > 100 µM.

`Oc1cccc(-c2nc3ccccc3s2)c1`: the GI50 is inactive: 48.9 µM. To `Cc1c2c(nc3ccccc13)C(=O)c1cccnc1C2=O` belongs inactive: 3.37 µM. As for `Clc1c2nc3ccccc3c-2[nH]c2ccccc12`, the GI50 is inactive: 17.1 µM.

Regarding `CC1(CO)OC(n2cnc3c(N)ncnc32)C(O)C1O` (centres undefined), the GI50 was inactive: > 100 µM. Next, `CC(=O)Oc1ccc(-c2cc3ccccc3oc2=O)cc1`: inactive: 83.9 µM; `SC1=NC2(CCCCCC2)NN1c1ccccc1`: inactive: 15.2 µM. To `CCCNC(=O)c1cc(NC(=O)c2cc(NC(=O)/C=C/c3ccccc3)c(OC)c(OC)c2)c(OC)c(OC)c1` belongs inactive: 5.51 µM; to `CSc1nc(Cl)c2c(n1)Sc1nc3ccccc3n1C2O` (centres undefined), inactive: 24.8 µM; to `CC(C1CCCC1=O)C1CCCC1=O` (centres undefined), inactive: 81.1 µM. Next, `N#CC1C(=O)SC2c3ccccc3C(=O)c3ccccc3C12` (centres undefined): inactive: > 10 µM; `O=C(N/N=C/c1ccc(Cl)cc1)c1cc(I)cc(I)c1O`: inactive: > 100 µM. Take `CN1N=C(c2ccncc2)OC1c1cccc(F)c1` (centres undefined): the GI50 was inactive: > 100 µM. In the case of `CCOC(=O)NC(=O)c1cn(CC(=O)NCC(=O)NCC(=O)N2CCN(CCn3c(C)nc(C(N)=O)c3N)CC2)c(=O)[nH]c1=O`, the GI50 was inactive: > 100 µM. To `CC1=CC(=O)/C(=C/NC(=S)Nc2ccccc2)C(=O)O1` belongs inactive: > 100 µM; to `COC(=O)C(C(=O)C(=O)Nc1ccccc1C(C)=O)c1nc2ccc(Cl)cc2nc1O` (centres undefined), inactive: > 100 µM; to `COc1cc2c(cc1OC)C(c1ccccc1CCCCl)=NCC2`, inactive: > 100 µM. Consider `O=C(/C=C1/Nc2ccc([N+](=O)[O-])cc2N/C1=C/C(=O)c1ccc(Cl)cc1)c1ccccc1`, for which the GI50 was inactive: > 100 µM. Next, `Cc1nc2sccn2c1C(=O)NN`: inactive: > 100 µM; `BrCC[N+]12CCCN1CCC2`: inactive: 17.5 µM. To `COc1ccc(N2C(=O)C3c4[nH]c5ccc(OCc6ccccc6)cc5c4C4CCC(C(C)(C)C)CC4C3C2=O)cc1` (centres undefined) belongs inactive: > 100 µM; to `O=C1C(c2ccc([N+](=O)[O-])cc2)=[N+]([O-])c2ccc([N+](=O)[O-])cc21`, inactive: > 100 µM. As to `CCN1CCC(O)(/C=C/c2cccc(C)c2)C(C(=O)/C=C/c2cccc(C)c2)C1` (centres undefined), the GI50 was inactive: 4 µM. Next, `COc1ccc(C[C@H](N)C(=O)N2C[C@H](CO)C[C@H](n3ccc(=O)[nH]c3=O)C2)cc1`: inactive: > 100 µM; `O=C(CC1(O)C(=O)Nc2c(Cl)ccc(Cl)c21)c1ccc(Cl)cc1` (centres undefined): inactive: 50.4 µM. To `O=C(Cc1ccccc1)NN1C(=O)C(Cl)C1c1ccccc1` (centres undefined) belongs inactive: > 100 µM; to `COc1ccc2c(c1)[C@@H](NC(C)=O)CCc1cc(OC)c(OC)c(OC)c1-2`, active: 0.0199 µM; to `N#Cc1cccc(/C=N/N/C(N)=N/O)c1`, inactive: 39.8 µM.

Turning to `Cc1ccc(S(=O)(=O)NC(=O)Nc2ccc(C(=O)O)cc2)cc1`, the GI50 is inactive: > 100 µM. Consider `Cc1ccc(S(=O)OCC23CC4CC(CC(C4)C2)C3)cc1` (centres undefined), for which the GI50 is inactive: > 100 µM. Take `Cc1cc(S(=O)(=O)Nc2nc3cc(-c4ccc(Cl)cc4)sc3c(=O)n2N)c(S)cc1Cl`: the GI50 is inactive: 53.1 µM. To `CC(C)(C)c1ccc(-n2c3nc(=O)n(-c4ccccc4CO)c(=O)c-3cc3ccccc32)cc1` belongs inactive: 35.2 µM; to `O=C(/C=C/c1ccc(OCc2ccccc2)c(OCc2ccccc2)c1)OCc1ccccc1`, inactive: > 100 µM; to `CC(=O)OCC1OC(N2C(=O)NC(=O)C3C=C4CCCCC4=CC32)C(OC(C)=O)C1OC(C)=O` (centres undefined), inactive: > 100 µM. Consider `CN(C)c1nc(N(C)C)sc(=O)n1`, for which the GI50 is inactive: > 100 µM. To `CC(C)(C)OC(=O)NC(Cc1ccc(OCc2ccccc2)cn1)C(=O)N1CCCC1` (centres undefined) belongs inactive: > 100 µM; to `Cn1c(=O)n2c(-c3ccccc3)c(-c3ccccc3)n2c1=O`, inactive: > 100 µM.

Consider `Clc1ccc2c(c1)[nH]c1c2nc2ccccn21`, for which the GI50 was inactive: 39 µM. To `O=c1[nH][nH]c(=O)c2c1ccc1oc3ccccc3c12` belongs inactive: > 100 µM; to `COc1c(C(=O)NCCN(CCNC(=O)c2cccc(-c3cccc(C(=O)N(C)C)c3OC)c2OC)CCNC(=O)c2cccc(-c3cccc(C(=O)N(C)C)c3OC)c2OC)cccc1-c1cccc(C(=O)N(C)C)c1OC`, inactive: 45.3 µM; to `CC(C)CCCC(C)[C@H]1CC[C@H]2[C@@H]3CC[C@H]4C[C@@H](CCC=C(c5cc(Cl)c(O)c(C(=O)OC(C)(C)C)c5)c5cc(Cl)c(O)c(C(=O)OC(C)(C)C)c5)CC[C@]4(C)[C@H]3CC[C@]12C` (some centres undefined), inactive: > 50 µM.

As to `Clc1ccc(C2=Nc3ccccc3SC(c3ccc(Cl)c(Cl)c3)C2)c(Cl)c1` (centres undefined), the GI50 was inactive: 18.6 µM. `CCOP(=O)(OCC)C(C)(C)N(C)/C(F)=N/C(F)(F)F`: the GI50 was inactive: > 100 µM.

`CCc1ccccc1NC(=O)/C(CC(=O)c1c(C)[n+]([O-])c2ccccc2[n+]1[O-])=N\NS(=O)(=O)c1ccc(C)cc1`: the GI50 is inactive: 96.4 µM. Next, `O=C(NC(CO)CO)c1ccc2cc(C(=O)N3CC(CCl)c4ccc([N+](=O)[O-])cc43)[nH]c2c1` (centres undefined): inactive: > 100 µM; `CCCCCCCCCCCCOCCOCCOCCOCCOCCOCC(=O)NC(Cc1ccccc1)C(=O)Oc1ccc([N+](=O)[O-])cc1` (centres undefined): inactive: 46.5 µM. Next, `COc1cc(CO)c(CC(=O)NCCCc2ccccc2)cc1OC`: inactive: > 100 µM; `O=c1[nH]c(=O)n(C/C=C/CBr)nc1Br`: inactive: 16.4 µM.

In the case of `COc1cccc(-c2[nH]c3cc4c(cc3c(=O)c2C(=O)O)OCO4)c1`, the GI50 was inactive: 72.8 µM. `CCC1C2Cc3ccc(O)cc3C1(CC)CCN2C` (centres undefined): the GI50 is inactive: > 100 µM. For the compound `O=C(O)C(=C\c1ccc2c(c1)OCO2)/C(=C/c1ccc2c(c1)OCO2)C(=O)O`, the GI50 is inactive: > 100 µM. To `CN1CCN(C(=S)N(C)C(=O)c2ccco2)CC1` belongs inactive: > 100 µM; to `O=C(Nc1ccc(Cl)cc1)C(=O)C1=C(O)c2ccccc2OC1`, inactive: > 100 µM; to `CCCC(=O)OC[n+]1ccc(-c2c(COC(=O)NC(C)C)c(COC(=O)NC(C)C)c3n2CCC3)cc1`, inactive: > 100 µM. In the case of `Oc1c(OCc2nnc(CCCCCCCCc3nnc(COc4ccc5ccccc5c4O)o3)o2)ccc2ccccc12`, the GI50 was inactive: > 100 µM. Next, `CC1=CCC[C@]2(C)C1=CC(=O)O[C@H]2c1ccoc1`: inactive: > 100 µM; `N#Cc1cc2c(n(C3OC(CO)C(O)C(O)C3O)c1=S)CCC2` (centres undefined): inactive: > 100 µM.

For `O/N=C1/CCCCC1NO` (centres undefined), the GI50 was inactive: > 100 µM.

For the compound `O=P(O)(O)C1CCCC(P(=O)(O)O)N1` (centres undefined), the GI50 was inactive: > 100 µM. To `COC(=O)C1=C(C(=O)OC)C(C(=O)c2ccccc2)N2N=C(c3ccc(Cl)cc3)C=CC12` (centres undefined) belongs inactive: > 100 µM.

For the compound `O=[N+]([O-])c1cccc2nccc(NCC(O)CO)c12` (centres undefined), the GI50 was inactive: 11.1 µM. Next, `Cc1ccccc1C(=N)c1ccccc1Cc1cccc2ccccc12`: inactive: 31.8 µM; `O=C(O)C[n+]1cn(NC(=O)Cc2ccccc2)cn1`: inactive: > 10 µM; `CC1=C(C(=O)NCc2ccccc2)C(c2ccccc2C)C(C(=O)NCc2ccccc2)=C(C)N1`: inactive: 40.1 µM.

For `Cc1ccc(C(=O)c2[nH]c(Nc3ccc(Cl)cc3)c(C(=S)Nc3ccccc3)c2N)cc1`, the GI50 is inactive: 7.94 µM. With `C/C(=N\NS(=O)(=O)c1ccc(C)cc1)c1cc2ccccc2n1C`, the GI50 was inactive: 45.5 µM. On to `N#Cc1nc(Cc2cccs2)oc1N`, for which the GI50 was inactive: > 100 µM.

In the case of `CC1=CC(=O)C(=CN2C(=O)/C(=C\c3cccnc3)NC2=S)C(=O)O1`, the GI50 is inactive: > 100 µM. For the compound `CC1C2(C)OC(=N)C(C#N)(C(c3cccc([N+](=O)[O-])c3)O2)C1(C#N)C#N` (centres undefined), the GI50 is inactive: > 100 µM. In the case of `CCCCCC(/C=C/[C@@H]1CC(=O)C[C@H]1O[Si](C)(C)C(C)(C)C)OCOCCOC` (some centres undefined), the GI50 was inactive: 16 µM.

In the case of `COC(CC1(/C=C/O[Si](C(C)C)(C(C)C)C(C)C)C(=O)N(COCC[Si](C)(C)C)c2ccccc21)OC` (centres undefined), the GI50 was inactive: 81.8 µM. Next, `CCCCOC(=O)C(O)Cc1ccoc1` (centres undefined): inactive: > 100 µM; `c1ccc2c(c1)n1nnnc1c1nnnn21`: inactive: > 100 µM.

As for `Cc1sc2nc3n(c(=O)c2c1C)N=CN(c1ccc(F)cc1)C3`, the GI50 was inactive: > 100 µM. As to `CCOC(=O)C1=CNC(C(=O)OCC)C1c1cccn1-c1ccccc1` (centres undefined), the GI50 is inactive: 32.8 µM. To `Nc1cc(CO)cc(Nc2nc3ccc(Cl)cc3c3[nH]c4ccccc4c23)c1` belongs inactive: 6.3 µM; to `Cc1cc(=O)nc(S(=O)(=O)NC(=S)Nc2ccc(Cl)cc2)[nH]1`, inactive: > 100 µM; to `Nc1ncnc2c1ncn2[C@]1(CO)C=C(CO)C(O)C1O` (some centres undefined), inactive: > 100 µM. With `CCN1CCCC(NCc2c3ccccc3c(CNC3CCCN(CC)C3)c3ccccc23)C1` (centres undefined), the GI50 is inactive: 20.2 µM. Take `CN(C)CCNC(=O)c1cc([N+](=O)[O-])cc2c1Oc1ccccc1O2`: the GI50 is inactive: 27.9 µM. To `Cc1cc2c(nn1)-c1ccccc1C2=O` belongs inactive: > 10 µM; to `COc1ccc2c(c1)CCc1cc(OC)ccc1/[N+]([O-])=[N+]\2[O-]`, inactive: 28.7 µM; to `COc1cc2c(cc1OC)C(=O)/C(=C/c1cc(C)cc(C)c1)C2`, active: 0.0869 µM. To `COc1ccc(OC)c(CC(C)N)c1` (centres undefined) belongs inactive: > 100 µM.
